# Source: patent publication US9873709B2 (priority 2013, dated 2018)
# pKi: −log10 of the molar value.
# Molecular target: isolated recombinant JAK1 kinase domain (Homo sapiens (Human), UniProt P23458)
# Conditions: read-out: JAK1 Ki; isolated recombinant JAK1 kinase domain, 25 μM ATP
row,Structure (SMILES),pKi
1,"CCOC(=O)N1CC=C(c2cccn3nc(Nc4ccc(C(=O)N5CC6(CCN(C)C6)C5)cc4)nc23)CC1 [Example 2-68, ethyl 4-[2-[4-(7-methyl-2,7-diazaspiro[3.4]octane-2-carbonyl)anilino]-[1,2,4]triazolo[1,5-a]pyridin-8-yl]-3,6-dihydro-2H-pyridine-1-carboxylate]",8.95
2,"CCOC(=O)N1CC=C(c2cccn3nc(Nc4ccc(C(=O)N[C@H]5CN6CCC5CC6)cc4)nc23)CC1 [Example 2-69, ethyl 4-[2-[4-[[(3R)-quinuclidin-3-yl]carbamoyl]anilino]-[1,2,4]triazolo[1,5-a]pyridin-8-yl]-3,6-dihydro-2H-pyridine-1-carboxylate]",8.39
3,"CCOC(=O)N1CC=C(c2cccn3nc(Nc4ccc(C(=O)N5Cc6cccnc6C5)cc4)nc23)CC1 [Example 2-70, ethyl 4-[2-[4-(5,7-dihydropyrrolo[3,4-b]pyridine-6-carbonyl)anilino]-[1,2,4]triazolo[1,5-a]pyridin-8-yl]-3,6-dihydro-2H-pyridine-1-carboxylate]",8.71
4,"CCOC(=O)N1CC=C(c2cccn3nc(Nc4ccc(C(=O)N5CC6CC5(CN)C6)cc4)nc23)CC1 [Example 2-71, ethyl 4-[2-[4-[4-(aminomethyl)-3-azabicyclo[2.1.1]hexane-3-carbonyl]anilino]-[1,2,4]triazolo[1,5-a]pyridin-8-yl]-3,6-dihydro-2H-pyridine-1-carboxylate]",8.22
5,"CCOC(=O)N1CC=C(c2cccn3nc(Nc4ccc(C(=O)N5C[C@@H]6C[C@]6(N)C5)cc4)nc23)CC1 [Example 2-73, ethyl 4-[2-[4-[(1S,5R)-5-amino-3-azabicyclo[3.1.0]hexane-3-carbonyl]anilino]-[1,2,4]triazolo[1,5-a]pyridin-8-yl]-3,6-dihydro-2H-pyridine-1-carboxylate]",8.59
6,"CCOC(=O)N1CC=C(c2cccn3nc(Nc4ccc(C(=O)N5CC(N)C5)cc4)nc23)CC1 [Example 2-74, ethyl 4-[2-[4-(3-aminoazetidine-1-carbonyl)anilino]-[1,2,4]triazolo[1,5-a]pyridin-8-yl]-3,6-dihydro-2H-pyridine-1-carboxylate]",9.09
7,"CCOC(=O)N1CC=C(c2cccn3nc(Nc4ccc(C(=O)N5CCCC6(CCNCC6)C5)cc4)nc23)CC1 [Example 2-75, ethyl 4-[2-[4-(2,9-diazaspiro[5.5]undecane-2-carbonyl)anilino]-[1,2,4]triazolo[1,5-a]pyridin-8-yl]-3,6-dihydro-2H-pyridine-1-carboxylate]",8.05
8,"CCOC(=O)N1CC=C(c2cccn3nc(Nc4ccc(C(=O)N5CCCC5CN)cc4)nc23)CC1 (stereo not drawn) [Example 2-76, ethyl 4-[2-[4-[2-(aminomethyl)pyrrolidine-1-carbonyl]anilino]-[1,2,4]triazolo[1,5-a]pyridin-8-yl]-3,6-dihydro-2H-pyridine-1-carboxylate]",8.29
9,"CCOC(=O)N1CC=C(c2cccn3nc(Nc4ccc(C(=O)N5CC6(CNC6)C5)cc4)nc23)CC1 [Example 2-77, ethyl 4-[2-[4-(2,6-diazaspiro[3.3]heptane-2-carbonyl)anilino]-[1,2,4]triazolo[1,5-a]pyridin-8-yl]-3,6-dihydro-2H-pyridine-1-carboxylate]",9.14
10,"CCOC(=O)N1CC=C(c2cccn3nc(Nc4ccc(C(=O)N5CCC6(CCNC6)C5)cc4)nc23)CC1 (stereo not drawn) [Example 2-78, ethyl 4-[2-[4-(2,7-diazaspiro[4.4]nonane-2-carbonyl)anilino]-[1,2,4]triazolo[1,5-a]pyridin-8-yl]-3,6-dihydro-2H-pyridine-1-carboxylate]",8.87
11,"CCOC(=O)N1CC=C(c2cccn3nc(Nc4ccc(C(=O)N5CCC6(CCNCC6)C5)cc4)nc23)CC1 [Example 2-79, ethyl 4-[2-[4-(2,8-diazaspiro[4.5]decane-2-carbonyl)anilino]-[1,2,4]triazolo[1,5-a]pyridin-8-yl]-3,6-dihydro-2H-pyridine-1-carboxylate]",8.55
12,"NCC1CCCN1C(=O)c1ccc(Nc2nc3c(C4=CCN(C(=O)CCC(F)(F)F)CC4)cccn3n2)cc1 (stereo not drawn) [Example 2-80, 1-[4-[2-[4-[2-(aminomethyl)pyrrolidine-1-carbonyl]anilino]-[1,2,4]triazolo[1,5-a]pyridin-8-yl]-3,6-dihydro-2H-pyridin-1-yl]-4,4,4-trifluoro-butan-1-one]",9.17
13,"O=C(CCC(F)(F)F)N1CC=C(c2cccn3nc(Nc4ccc(C(=O)N5CC6(CCNCC6)C5)cc4)nc23)CC1 [Example 2-81, 1-[4-[2-[4-(2,7-diazaspiro[3.5]nonane-2-carbonyl)anilino]-[1,2,4]triazolo[1,5-a]pyridin-8-yl]-3,6-dihydro-2H-pyridin-1-yl]-4,4,4-trifluoro-butan-1-one]",8.80
14,"O=C(CCC(F)(F)F)N1CC=C(c2cccn3nc(Nc4ccc(C(=O)N5CCOC6(CCCNC6)C5)cc4)nc23)CC1 (stereo not drawn) [Example 2-82, 4,4,4-trifluoro-1-[4-[2-[4-(1-oxa-4,8-diazaspiro[5.5]undecane-4-carbonyl)anilino]-[1,2,4]triazolo[1,5-a]pyridin-8-yl]-3,6-dihydro-2H-pyridin-1-yl]butan-1-one]",8.85
15,"O=C(NCC1CCC2(CCNCC2)O1)c1ccc(Nc2nc3c(C4=CCN(C(=O)CCC(F)(F)F)CC4)cccn3n2)cc1 (stereo not drawn) [Example 2-83, N-(1-oxa-8-azaspiro[4.5]decan-2-ylmethyl)-4-[[8-[1-(4,4,4-trifluorobutanoyl)-3,6-dihydro-2H-pyridin-4-yl]-[1,2,4]triazolo[1,5-a]pyridin-2-yl]amino]benzamide]",8.90
16,"O=C(NCC1CCNCC1)c1ccc(Nc2nc3c(C4=CCN(C(=O)CCC(F)(F)F)CC4)cccn3n2)cc1 [Example 2-84, N-(4-piperidylmethyl)-4-[[8-[1-(4,4,4-trifluorobutanoyl)-3,6-dihydro-2H-pyridin-4-yl]-[1,2,4]triazolo[1,5-a]pyridin-2-yl]amino]benzamide]",9.03
17,"CNC1CCN(C(=O)c2ccc(Nc3nc4c(C5=CCN(C(=O)CCC(F)(F)F)CC5)cccn4n3)cc2)C1 (stereo not drawn) [Example 2-85, 4,4,4-trifluoro-1-[4-[2-[4-[3-(methylamino)pyrrolidine-1-carbonyl]anilino]-[1,2,4]triazolo[1,5-a]pyridin-8-yl]-3,6-dihydro-2H-pyridin-1-yl]butan-1-one]",9.29
18,"O=C(NCCC1CCNCC1)c1ccc(Nc2nc3c(C4=CCN(C(=O)CCC(F)(F)F)CC4)cccn3n2)cc1 [Example 2-86, N-[2-(4-piperidyl)ethyl]-4-[[8-[1-(4,4,4-trifluorobutanoyl)-3,6-dihydro-2H-pyridin-4-yl]-[1,2,4]triazolo[1,5-a]pyridin-2-yl]amino]benzamide]",8.80
19,"CN1CC2CN(C(=O)c3ccc(Nc4nc5c(C6=CCN(C(=O)CCC(F)(F)F)CC6)cccn5n4)cc3)CC2C1 (stereo not drawn) [Example 2-87, 4,4,4-trifluoro-1-[4-[2-[4-(2-methyl-1,3,3a,4,6,6a-hexahydropyrrolo[3,4-c]pyrrole-5-carbonyl)anilino]-[1,2,4]triazolo[1,5-a]pyridin-8-yl]-3,6-dihydro-2H-pyridin-1-yl]butan-1-one]",8.83
20,"CN(C)CCC1CCCN(C(=O)c2ccc(Nc3nc4c(C5=CCN(C(=O)CCC(F)(F)F)CC5)cccn4n3)cc2)C1 (stereo not drawn) [Example 2-88, 1-[4-[2-[4-[3-[2-(dimethylamino)ethyl]piperidine-1-carbonyl]anilino]-[1,2,4]triazolo[1,5-a]pyridin-8-yl]-3,6-dihydro-2H-pyridin-1-yl]-4,4,4-trifluoro-butan-1-one]",8.65
21,"CN(C)CC1(O)CCCN(C(=O)c2ccc(Nc3nc4c(C5=CCN(C(=O)CCC(F)(F)F)CC5)cccn4n3)cc2)CC1 (stereo not drawn) [Example 2-89, 1-[4-[2-[4-[4-[(dimethylamino)methyl]-4-hydroxy-azepane-1-carbonyl]anilino]-[1,2,4]triazolo[1,5-a]pyridin-8-yl]-3,6-dihydro-2H-pyridin-1-yl]-4,4,4-trifluoro-butan-1-one]",8.66
22,"Cc1nc(C2CCCN(C(=O)c3ccc(Nc4nc5c(C6=CCN(C(=O)CCC(F)(F)F)CC6)cccn5n4)cc3)C2)cc(N(C)C)n1 (stereo not drawn) [Example 2-90, 1-[4-[2-[4-[3-[6-(dimethylamino)-2-methyl-pyrimidin-4-yl]piperidine-1-carbonyl]anilino]-[1,2,4]triazolo[1,5-a]pyridin-8-yl]-3,6-dihydro-2H-pyridin-1-yl]-4,4,4-trifluoro-butan-1-one]",8.52
23,"CN(C)c1cccc(C2CCN(C(=O)c3ccc(Nc4nc5c(C6=CCN(C(=O)CCC(F)(F)F)CC6)cccn5n4)cc3)CC2)n1 [Example 2-91, 1-[4-[2-[4-[4-[6-(dimethylamino)-2-pyridyl]piperidine-1-carbonyl]anilino]-[1,2,4]triazolo[1,5-a]pyridin-8-yl]-3,6-dihydro-2H-pyridin-1-yl]-4,4,4-trifluoro-butan-1-one]",8.44
24,"Cc1cc(N(C)C)cc(C2CCCN2C(=O)c2ccc(Nc3nc4c(C5=CCN(C(=O)CCC(F)(F)F)CC5)cccn4n3)cc2)n1 (stereo not drawn) [Example 2-92, 1-[4-[2-[4-[2-[4-(dimethylamino)-6-methyl-2-pyridyl]pyrrolidine-1-carbonyl]anilino]-[1,2,4]triazolo[1,5-a]pyridin-8-yl]-3,6-dihydro-2H-pyridin-1-yl]-4,4,4-trifluoro-butan-1-one]",9.36
25,"CN1CCCC2(CCCN(C(=O)c3ccc(Nc4nc5c(C6=CCN(C(=O)CCC(F)(F)F)CC6)cccn5n4)cc3)C2)C1 (stereo not drawn) [Example 2-93, 4,4,4-trifluoro-1-[4-[2-[4-(8-methyl-2,8-diazaspiro[5.5]undecane-2-carbonyl)anilino]-[1,2,4]triazolo[1,5-a]pyridin-8-yl]-3,6-dihydro-2H-pyridin-1-yl]butan-1-one]",8.90
26,"CCOC(=O)N1CC=C(c2cccn3nc(Nc4ccc(C(=O)OC5CCN(C)CC5)cc4)nc23)CC1 [Example 2-94, ethyl 4-[2-[4-[(1-methyl-4-piperidyl)oxycarbonyl]anilino]-[1,2,4]triazolo[1,5-a]pyridin-8-yl]-3,6-dihydro-2H-pyridine-1-carboxylate]",8.77
27,"O=C(CCC(F)(F)F)N1CC=C(c2cccn3nc(Nc4ccc(C(=O)N5CCN(Cc6ccccn6)CC5)cc4)nc23)CC1 [Example 2-95, 4,4,4-trifluoro-1-[4-[2-[4-[4-(2-pyridylmethyl)piperazine-1-carbonyl]anilino]-[1,2,4]triazolo[1,5-a]pyridin-8-yl]-3,6-dihydro-2H-pyridin-1-yl]butan-1-one]",9.12
